Test results published in PubChem BioAssay AID1030 (National Center for Advancing Translational Sciences (NCATS), 2008).
In all, about 220,000 compounds went through this assay and about 16,000 (7.3%) were called active. The inconclusive results got no clear call from the source; some entries with a clear call stand among them for comparison. The call rests on the fitted dose curve; in most records, active means well fitted inhibition curve with a large enough effect (not every such curve was filed as active); inconclusive means small, poorly fitted or top-dose-only effect, or another doubt; inactive means no such curve, though single readings can be large or run the other way. Potencies beside an inconclusive call are fits to weak or partial responses and may not hold up.

What follows are compounds tested against Aldehyde dehydrogenase 1A1 (Homo sapiens) (UniProt P00352) (assay: qHTS Assay for Inhibitors of Aldehyde Dehydrogenase 1 (ALDH1A1)). Conditions: Purified ALDH1A1, NADH fluorescence, propionaldehyde substrate; series mostly up to 75.3 µM.
Potency means the concentration at half of the fitted maximal effect; tags describe the fitted curve by direction and shape.
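Wherever activity, negative = inhibition is given: plate controls were no enzyme wells and a reference inhibitor.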

Chain of UniProt P00352 (P00352 whole entry, looked up): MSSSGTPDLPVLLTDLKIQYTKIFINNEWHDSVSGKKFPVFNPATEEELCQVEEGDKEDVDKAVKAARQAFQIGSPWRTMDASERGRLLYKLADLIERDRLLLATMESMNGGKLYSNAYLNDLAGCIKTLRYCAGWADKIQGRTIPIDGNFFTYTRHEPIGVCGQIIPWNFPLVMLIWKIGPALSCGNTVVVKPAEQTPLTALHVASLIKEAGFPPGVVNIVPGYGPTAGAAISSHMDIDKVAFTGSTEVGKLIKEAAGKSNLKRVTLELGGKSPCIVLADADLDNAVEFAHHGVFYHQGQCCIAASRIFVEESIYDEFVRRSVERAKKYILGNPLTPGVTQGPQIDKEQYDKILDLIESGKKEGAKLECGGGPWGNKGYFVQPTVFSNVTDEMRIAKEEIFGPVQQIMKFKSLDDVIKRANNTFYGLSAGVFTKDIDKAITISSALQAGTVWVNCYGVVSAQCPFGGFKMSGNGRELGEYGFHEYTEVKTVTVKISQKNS

Potency, inconclusive:
COc1cccc(-c2ccc(-c3noc(-c4ccccc4F)n3)c(OC)n2)c1 31.6 µM [inhibitor, partial curve]
CC1CC(NC(=O)Cc2ccc(Br)cc2)CC(C)(C)C1 (stereo unspecified) 6.31 µM [inhibitor, partial curve]
Cc1ccc(-c2nnc(N3CCCCC3)c3ccccc23)cc1S(=O)(=O)NCC1CCCO1 (stereo unspecified) 25.1 µM [inhibitor, single point]
O=C(CSc1nc2ccccc2c(=O)[nH]1)c1ccc(O)cc1O 28.2 µM [inhibitor, single point]
O=C(Nc1cccc(NC(=O)c2ccco2)c1)c1ccc2c(c1)OCCO2 25.1 µM [inhibitor, single point]
CCCCC(=O)N(CCOC)c1nnc(-c2ccc(OC)cc2)s1 25.1 µM [inhibitor, partial curve]
Cc1ccc(NC(=S)Nc2cccnc2)c(S(=O)(=O)N2CCCCC2)c1 39.8 µM [inhibitor, single point]
FC(F)(F)c1ccc2nnc(-c3c(Cl)cccc3Cl)n2c1 31.6 µM [inhibitor, single point]
Cc1ccc(CNc2ccc3c(c2)OCO3)c(C)c1 35.5 µM [inhibitor, single point]
COc1cc2c(cc1OC)C(c1ccccc1F)OC(=O)C2 (stereo unspecified) 25.1 µM [inhibitor, single point]
COc1cc(/C=N/NC(=O)c2ccccc2O)ccc1OC(=O)CC1SC(=O)NC1=O (stereo unspecified) 28.2 µM [inhibitor, single point]
CC(=O)Nc1ccc(S(=O)(=O)N2CCCN(S(=O)(=O)c3ccc(C)cc3)CC2)cc1 3.98 µM [inhibitor, partial curve]
O=C(CSc1nc2ccccc2c(=O)n1CC1CCCCC1)N1CCOCC1 20 µM [inhibitor, partial curve]
CC(C)CCOC(=O)/C(=C/c1ccco1)NC(=O)/C=C/c1ccccc1 31.6 µM [inhibitor, single point]
O=C(O)c1c(-c2nccc3ccccc23)[nH]c(-c2ccccc2)c1S(=O)(=O)O 8.91 µM [inhibitor, single point]
CN(C)c1nc(Nc2ccccc2)nc(N(C)C)n1 39.8 µM [inhibitor, single point]
CC1CCc2nc(N)c(C#N)c(-c3cccnc3)c2C1 (stereo unspecified) 39.8 µM [inhibitor, single point]
CCc1cc2cccc(C)c2nc1SCC(=O)NNC(=O)c1ccco1 39.8 µM [inhibitor, single point]
COC(=O)c1[nH]c2cc(OC)c(OC)cc2c1NC(=O)CN1CCN(Cc2ccccc2)CC1 25.1 µM [inhibitor, partial curve]
CSCCC(NS(=O)(=O)c1ccc(Cl)cc1)C(=O)OCC(=O)c1ccc(F)cc1 (stereo unspecified) 3.98 µM [inhibitor, full curve]
O=S(=O)(c1cccc(-c2nnc(SCc3nc4ccccc4s3)o2)c1)N1CCOCC1 39.8 µM [inhibitor, single point]
Cc1ccc(-c2ccc(C(=O)Nc3cccc(F)c3)o2)c2ccccc12 25.1 µM [inhibitor, partial curve]
O=C(Cc1cccc2ccccc12)NN1C(=O)CSC1=S 0.631 µM [inhibitor, full curve, poor fit]
COC1(OC)C(/C=C/c2ccc(Cl)cc2)C(C#N)(C#N)C1(OC)OC (stereo unspecified) 31.6 µM [inhibitor, single point]
O=C(COC(=O)c1cccnc1Cl)Nc1ccc2c(c1)OCO2 14.1 µM [inhibitor, partial curve]
CCCCOc1ccc(N2C(=O)CC(N(O)c3ccccc3)C2=O)cc1 (stereo unspecified) 39.8 µM [inhibitor, single point]
O=C(O)/C=C\c1cn(-c2ccccc2)nc1-c1cc2ccccc2o1 35.5 µM [inhibitor, partial curve]
O=C(/C=C/c1ccco1)NC(=S)Nc1ccccc1O 31.6 µM [inhibitor, single point]
Cc1cccc(-n2c(SCc3cc(=O)n4ccsc4n3)nc3ccccc32)c1 3.55 µM [inhibitor, single point]
COc1ccc(CCNC(=O)CCCCCN2C(=O)c3ccccc3C2=O)cc1 14.1 µM [inhibitor, partial curve]
CC(=O)c1ccc(N/N=C2/CCCNC2=O)cc1 39.8 µM [inhibitor, single point]
O=C(O)COc1c(-c2ccco2)oc2ccccc2c1=O 25.1 µM [inhibitor, partial curve]
O=S(=O)(Nc1cccc(-c2nc3cccnc3s2)c1)c1ccc2c(c1)OCCO2 15.8 µM [inhibitor, single point]
CC1=CC=CN2CC(O)CN=C12 (stereo unspecified) 25.1 µM [inhibitor, partial curve]
CCN(CC)C(=O)c1ccc(Oc2ccc([N+](=O)[O-])cc2Cl)cc1 44.7 µM [inhibitor, single point]
CC(C)c1ccc(CCNC(=O)c2ccc([N+](=O)[O-])cc2)cc1 25.1 µM [inhibitor, single point]
O=C(O)CCC(=O)N1CCN(c2nc(-c3ccccc3Cl)c3cc(Br)ccc3n2)CC1 25.1 µM [inhibitor, partial curve]
Cc1ccc(S(=O)(=O)/C(C#N)=C/c2c(N3CCC(C(N)=O)CC3)nc3ccccn3c2=O)cc1 22.4 µM [inhibitor, single point]
O=C(c1cc2c(s1)CCCC2)n1cccn1 39.8 µM [inhibitor, single point]
Cc1ccc(C2CC2c2n[nH]c(=S)n2-c2ccc(C)cc2)cc1 (stereo unspecified) 44.7 µM [inhibitor, single point]
COc1ccc(-n2nc3cc(C)c(NC(=O)c4cccnc4)cc3n2)cc1 39.8 µM [inhibitor, single point]
CCN(CC)S(=O)(=O)c1ccc(O)c(C(=O)OCC(=O)Nc2cc(C)c(C)cc2[N+](=O)[O-])c1 12.6 µM [inhibitor, partial curve]
Cc1ccc(-n2c(C)c3c(C)nnc(C)c3c2C)cc1C 39.8 µM [inhibitor, single point]
Cc1cc(C(=O)N2CCN(c3ccccn3)CC2)c(C)o1 39.8 µM [inhibitor, single point]
CC(C)c1ccc(/C=c2\sc3nc(-c4ccncc4)nn3c2=O)cc1 37.7 µM [inhibitor, single point]

Potency, inactive:
COC(=O)N[C@@H](/C=C/c1ccccc1)[C@@H](C)[N+](=O)[O-]
O=C1c2cccc3c([N+](=O)[O-])ccc(c23)C(=O)N1Cc1cccnc1
O=C(CCC(=O)N(CC(=O)NC1CCCC1)Cc1ccc2c(c1)OCO2)Nc1nccs1
CCCC(c1c(C)n(C)n(-c2ccccc2)c1=O)c1c(C)n(C)n(-c2ccccc2)c1=O
COc1ccc(C2C(C(C)=O)=C(O)C(=O)N2c2ccc(Br)cn2)cc1 (stereo unspecified)
C/C(CC1(O)C(=O)N(C)c2ccccc21)=N\O (stereo unspecified)
CCOC(=O)c1sc(-c2ccc(Cl)cc2Cl)nc1O
Cc1ccc(S(=O)(=O)NC(=O)N(C)C2CCCCC2)cc1
CCOCCCNC(=O)C(NC(=O)c1ccc(NC(C)=O)cc1)c1ccccc1 (stereo unspecified)
O=C1c2cccnc2-c2ncccc21
O=C(NC1CCCC1)C1CCCN1C(=O)Nc1ccc(Cl)cc1 (stereo unspecified)
S=C(NCc1ccc2[nH]c3c(c2c1)CCCC3)Nc1ccccc1
N#Cc1c(-c2cccs2)nc(SCC(=O)c2cccs2)[nH]c1=O
O=C(Cc1ccc(Cl)cc1)c1c[nH]c(C(=O)NCCCN2CCOCC2)c1
CSc1nc(S(=O)(=O)c2ccc(C)cc2)c(Cl)s1
Cc1ccc(-c2[nH]ncc2/C=N/n2c(COc3ccccc3)nc3ccccc3c2=O)cc1
CCCCNC(=O)CN(C1CCCCC1)S(C)(=O)=O

Potency, active:
CCOCC(=O)Nc1cc([N+](=O)[O-])ccc1OC 22.4 µM
Cc1ccccc1OC(=O)n1c(=S)oc2cc(Cl)ccc21 7.08 µM
Cc1ccc(S(=O)(=O)N2CCN(C(=O)CN3CCc4ccccc4C3)CC2)cc1 14.1 µM
COc1ccc(CN(C2CCCCC2C)S(=O)(=O)c2ccc(S(=O)(=O)N(C)C)cc2)cc1OC (stereo unspecified) 3.55 µM
O=C(Nc1ccccn1)c1ccc2c(c1)S(=O)(=O)c1ccccc1C2=O 15.8 µM
O=C(Nc1ccccc1-c1ccccc1)C1CCC1 3.16 µM
Cc1ccc(-c2nc3ccccc3[nH]2)cc1NC(=O)/C=C/c1ccco1 12.6 µM
O=C1CCC(=O)N1c1cccc(OS(=O)(=O)c2ccccc2)c1 0.355 µM

activity, negative = inhibition, inactive:
ClC(=Nc1cccc2ccccc12)N(c1ccccc1)c1ccccc1 5.57% [at 13.5 µM]
